# Data: the supplement of paper PMC8728848
# The list shows a part of the results.
# Experiments:
# Assay in all cases: glycan array binding signal (z-score within array); higher = stronger binding
# Settings in all cases: glycan notation: IUPAC condensed, linker removed; mutation: E227A
# [1] = molecular target: GlcNAc(b1-3)Gal(b1-4)GlcNAc(b1-3)Gal(b1-4)GlcNAc(b1-3)Gal(b1-4)GlcNAc(b1-3)Gal(b1-4)GlcNAc(b1-2)[GlcNAc(b1-3)Gal(b1-4)GlcNAc(b1-3)Gal(b1-4)GlcNAc(b1-3)Gal(b1-4)GlcNAc(b1-3)Gal(b1-4)GlcNAc(b1-6)]Man(a1-6)[GlcNAc(b1-3)Gal(b1-4)GlcNAc(b1-3)Gal(b1-4)GlcNAc(b1-3)Gal(b1-4)GlcNAc(b1-3)Gal(b1-4)GlcNAc(b1-2)Man(a1-3)]Man(b1-4)GlcNAc(b1-4)[Fuc(a1-6)]GlcNAc
# In short: (§1)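 Columns mapping to the same glycan were averaged after glycan names were converted to IUPAC-condensed notation. The data come from 3228 arrays in the Consortium for Functional Glycomics database, limited to those with an available protein sequence. Binding is reported as a within-array Z-score averaged across arrays of one protein sequence and across linkers.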
# [2] = molecular target: GlcNAc(b1-3)Gal(b1-4)GlcNAc(b1-3)Gal(b1-4)GlcNAc(b1-3)GalNAc
# In short: as §1
# [3] = molecular target: GlcNAc(b1-3)Gal(b1-4)GlcNAc(b1-3)GalNAc
# In short: as §1
# [4] = molecular target: GlcNAc(b1-3)Gal(b1-4)GlcNAc(b1-3)[GlcNAc(b1-3)Gal(b1-4)GlcNAc(b1-3)]GalNAc
# In short: as §1
# [5] = molecular target: GlcNAc(b1-3)Gal(b1-4)GlcNAc(b1-6)[Gal(b1-3)]GalNAc
# In short: as §1
# [6] = molecular target: GlcNAc(b1-3)Gal(b1-4)GlcNAc(b1-6)[GlcNAc(b1-3)Gal(b1-3)]GalNAc
# In short: as §1
# [7] = molecular target: GlcNAc(b1-3)Gal(b1-4)GlcNAc(b1-6)[GlcNAc(b1-3)]Gal(b1-4)GlcNAc
# In short: as §1
# [8] = molecular target: GlcNAc(b1-3)GalNAc
# In short: as §1
# [9] = molecular target: GlcNAc(b1-3)Man
# In short: as §1
# [10] = molecular target: GlcNAc(b1-3)[GlcNAc(b1-4)][GlcNAc(b1-6)]GlcNAc
# In short: as §1
# [11] = molecular target: GlcNAc(b1-3)[GlcNAc(b1-6)]Gal(b1-4)GlcNAc
# In short: as §1
# [12] = molecular target: GlcNAc(b1-3)[GlcNAc(b1-6)]GalNAc
# In short: as §1
# [13] = molecular target: GlcNAc(b1-4)Gal(b1-4)GlcNAc
# In short: as §1
# [14] = molecular target: GlcNAc(b1-4)GlcNAc
# In short: as §1
# [15] = molecular target: GlcNAc(b1-4)GlcNAc(b1-4)GlcNAc
# In short: as §1
# [16] = molecular target: GlcNAc(b1-4)GlcNAc(b1-4)GlcNAc(b1-4)GlcNAc(b1-4)GlcNAc
# In short: as §1
# [17] = molecular target: GlcNAc(b1-4)GlcNAc(b1-4)GlcNAc(b1-4)GlcNAc(b1-4)GlcNAc(b1-4)GlcNAc
# In short: as §1
# [18] = molecular target: GlcNAc(b1-4)[GlcNAc(b1-6)]GalNAc
# In short: as §1
# [19] = molecular target: GlcNAc(b1-6)Gal(b1-4)GlcNAc
# In short: as §1
# [20] = molecular target: GlcNAc(b1-6)GalNAc
# In short: as §1
# [21] = molecular target: GlcNAc6S(b1-3)Gal(b1-4)GlcNAc
# In short: as §1
# [22] = molecular target: Kdn(a2-3)Gal(b1-3)GalNAc
# In short: as §1
# [23] = molecular target: Kdn(a2-3)Gal(b1-3)GlcNAc
# In short: as §1
# [24] = molecular target: Kdn(a2-3)Gal(b1-4)Glc
# In short: as §1
# [25] = molecular target: Kdn(a2-3)Gal(b1-4)GlcNAc
# In short: as §1
# [26] = molecular target: Kdn(a2-3)Gal(b1-4)[Fuc(a1-3)]GlcNAc
# In short: as §1
# [27] = molecular target: Kdn(a2-6)Gal(b1-4)GlcNAc
# In short: as §1
# [28] = molecular target: Man(a1-2)Man(a1-2)Man(a1-3)Man
# In short: as §1
# [29] = molecular target: Man(a1-2)Man(a1-2)Man(a1-6)[Man(a1-3)]Man
# In short: as §1
# [30] = molecular target: Man(a1-2)Man(a1-3)Man
# In short: as §1
binder,measurement,setting,value
"Epa1-NP-mutant-E227A (Candida glabrata), Q6VBJ0 (protein) MILNPALFLNKCVCIYTTLILLLLTNGGYATSSNDISLASKDPTTFPLGCSPDITTPKKGLSMELYSYDFRKKGSYPCWDAAYLDPNYPRTGYKSHRLLAKVDGVTGNINFYYHATKGCTPQLGHLPASYNYPKPLTMTNFTMLLYGYFRPKVTGFHTFTISADDLLFVNFGAGNAFDCCRRDSSADHFGNYQAYAIWGSKTAKDELTVHLDAGVYYPIRLFYNNRAYDGALSFTFKTESNENTVSDFSEYFFSLDDTEEGCPGLISYDSSCASVKTSKIIGIDYHTETPNENLVPITKTIYHLGIPCTGTTTTPLCGSGFYDPLANKCVTINTSSTSSVTKTTSHTTSKEVSFHSSISSQKTLIPKSIPSPYGPIKSQSIPTEMETSSEISSSEYAFSDVISTPSHSPYTKKHSSLNSSSYTSTVIHSLTSYSISQGIFSTSLSEQNITSKSSTDKFSTATSMSNNITQSSIIISQFSTNNENYTTTSMHTSSDKISTETLNNSISTTTSILFSNSSTILKNNTTIISSDKDTHYHPVNPTIVCSTNKTEIICASITQPSISNSNNHWSSSVLKFNSTTVRSTLPSSAGSNETSINVPFSSSTESNTSTSSTSTSNSKMVRSTLPSSAGSNETSISVPFSSSTESNTSTSSTSTSNSKMVRSTLPSSAGSNETSINVPFSSSTESNTSTSSTSTSNSKTVRSTPFSSAGIIMTSLSQRNNKSASSYASSNSKCYNTADSCRKVHSTPSYLLTSSYTSEGVDYDCSLVSTKLKINDTNCVNNKHTTKSCLKTSVTTTIPTLEIKTARKSSSNTIGLHSYPTSSPNKSISSAPIIGYISSFKTIKTASPSYQTSDLTTITTITSLNNPGSTAVENTHESNDKSRKTSSNDISSKHSVIKETKDAVESSNKSHQTNTLKCSSIIIASSSHNSYESLGGTTLTLTLSKVYSPQNNDTLPFLEISEVNPSRTVLPESSKMMQYLTSTEERNKTARNTIATNIVSISTFHFEGEGNAIRMGYTQLLLMLIGIIVMNIGT",glycan array binding signal (z-score),[1],-0.169
same,glycan array binding signal (z-score),[2],-0.189
same,glycan array binding signal (z-score),[3],-0.192
same,glycan array binding signal (z-score),[4],-0.196
same,glycan array binding signal (z-score),[5],0.563
same,glycan array binding signal (z-score),[6],-0.207
same,glycan array binding signal (z-score),[7],-0.208
same,glycan array binding signal (z-score),[8],-0.214
same,glycan array binding signal (z-score),[9],-0.215
same,glycan array binding signal (z-score),[10],-0.2
same,glycan array binding signal (z-score),[11],-0.174
same,glycan array binding signal (z-score),[12],-0.223
same,glycan array binding signal (z-score),[13],-0.178
same,glycan array binding signal (z-score),[14],-0.196
same,glycan array binding signal (z-score),[15],-0.241
same,glycan array binding signal (z-score),[16],-0.147
same,glycan array binding signal (z-score),[17],-0.223
same,glycan array binding signal (z-score),[18],-0.193
same,glycan array binding signal (z-score),[19],0.346
same,glycan array binding signal (z-score),[20],-0.209
same,glycan array binding signal (z-score),[21],0.425
same,glycan array binding signal (z-score),[22],-0.189
same,glycan array binding signal (z-score),[23],-0.204
same,glycan array binding signal (z-score),[24],-0.171
same,glycan array binding signal (z-score),[25],-0.131
same,glycan array binding signal (z-score),[26],-0.188
same,glycan array binding signal (z-score),[27],-0.156
same,glycan array binding signal (z-score),[28],-0.221
same,glycan array binding signal (z-score),[29],-0.224
same,glycan array binding signal (z-score),[30],-0.203
